Assay results from patent publication US20240076343A1 (CEPHALON, published 2024).

T1: recombinant human CD25 extracellular domain, C-terminal poly-histidine tagged (human, UniProt P01589 22-240)
T1 construct: also called CD25/IL-2Rα; IL-2Rα
T1 sequence: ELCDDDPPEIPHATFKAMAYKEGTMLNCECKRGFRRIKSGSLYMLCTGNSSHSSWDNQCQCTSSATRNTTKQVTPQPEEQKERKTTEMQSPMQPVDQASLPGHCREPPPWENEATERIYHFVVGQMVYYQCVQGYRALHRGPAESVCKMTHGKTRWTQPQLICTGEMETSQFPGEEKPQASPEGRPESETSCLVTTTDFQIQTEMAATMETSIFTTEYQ

T2: recombinant human CD122 extracellular domain, C-terminal poly-histidine tagged (human, UniProt P14784 27-240)
T2 construct: also called CD122/IL-2Rβ; IL-2Rβ
T2 sequence: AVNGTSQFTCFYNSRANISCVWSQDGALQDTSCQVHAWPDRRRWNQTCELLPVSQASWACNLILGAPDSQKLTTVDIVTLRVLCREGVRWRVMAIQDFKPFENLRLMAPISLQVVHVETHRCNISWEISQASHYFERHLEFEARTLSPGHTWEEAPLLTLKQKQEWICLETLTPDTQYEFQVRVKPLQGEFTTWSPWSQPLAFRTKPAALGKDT

B1: 1H3-hIgG1-L6-hIL-2 (D20R) (other)
heavy: EVQLVESGGGLVQPGRSLKLSCAVSGFTFSDYAMAWVRQAPKKGLEWVATISYDGSRTYYRDSVKGRFTISRDNAKITLYLQMDSLRSEDTATYYCARHGSGYFDYWGQGVMVTVSS[not shown - about 450 residues with a human IgG1 Fc and changes]
light: DTVLTQSPALAVSPGERVTISCRASESVRTGVHWYQQKPGQQPKLLIYGASNLESGVPARFSGSGSGTDFTLTIDPVEADDTATYFCQQSWNDPFTFGSGTKLEIKRTVAAPSVFIFPPSDEQLKSGTASVVCLLNNFYPREAKVQWKVDNALQSGNSQESVTEQDSKDSTYSLSSTLTLSKADYEKHKVYACEVTHQGLSSPVTKSFNRGEC
notes: Built as m13
B2: 1H3-hIgG1-L6-hIL-2 (D20Y) (other)
heavy: EVQLVESGGGLVQPGRSLKLSCAVSGFTFSDYAMAWVRQAPKKGLEWVATISYDGSRTYYRDSVKGRFTISRDNAKITLYLQMDSLRSEDTATYYCARHGSGYFDYWGQGVMVTVSS[not shown - about 450 residues with a human IgG1 Fc and changes]
light: B1 light
notes: Built as m13
B3: 1H3-hIgG1-L6-hIL-2 (H16Y) (other)
heavy: EVQLVESGGGLVQPGRSLKLSCAVSGFTFSDYAMAWVRQAPKKGLEWVATISYDGSRTYYRDSVKGRFTISRDNAKITLYLQMDSLRSEDTATYYCARHGSGYFDYWGQGVMVTVSS[not shown - about 450 residues with a human IgG1 Fc and changes]
light: B1 light
notes: Built as m13
B4: 1H3-hIgG1-L6-hIL-2 (F42K/Y45R/D20A/S87A) (other)
heavy: EVQLVESGGGLVQPGRSLKLSCAVSGFTFSDYAMAWVRQAPKKGLEWVATISYDGSRTYYRDSVKGRFTISRDNAKITLYLQMDSLRSEDTATYYCARHGSGYFDYWGQGVMVTVSS[not shown - human IgG1 constant region]SGGGGSAPTSSSTKKTQLQLEHLLLALQMILNGINNYKNPKLTRMLTKKFRMPKKATELKHLQCLEEELKPLEEVLNLAQSKNFHLRPRDLIANINVIVLELKGSETTFMCEYADETATIVEFLNRWITFCQSIISTLT
light: B1 light
notes: Built as m13
B5: 1H3-hIgG1-L6-hIL-2 (F42K/Y45R/D20A/E95A) (other)
heavy: EVQLVESGGGLVQPGRSLKLSCAVSGFTFSDYAMAWVRQAPKKGLEWVATISYDGSRTYYRDSVKGRFTISRDNAKITLYLQMDSLRSEDTATYYCARHGSGYFDYWGQGVMVTVSS[not shown - human IgG1 constant region]SGGGGSAPTSSSTKKTQLQLEHLLLALQMILNGINNYKNPKLTRMLTKKFRMPKKATELKHLQCLEEELKPLEEVLNLAQSKNFHLRPRDLISNINVIVLALKGSETTFMCEYADETATIVEFLNRWITFCQSIISTLT
light: B1 light
notes: Built as m13
B6: 1H3-hIgG1-L6-hIL-2 (I92D) (other)
heavy: EVQLVESGGGLVQPGRSLKLSCAVSGFTFSDYAMAWVRQAPKKGLEWVATISYDGSRTYYRDSVKGRFTISRDNAKITLYLQMDSLRSEDTATYYCARHGSGYFDYWGQGVMVTVSS[not shown - about 450 residues with a human IgG1 Fc and changes]
light: B1 light
notes: Built as m13
B7: 1H3-hIgG1-L6-hIL-2 (K43A) (other)
heavy: EVQLVESGGGLVQPGRSLKLSCAVSGFTFSDYAMAWVRQAPKKGLEWVATISYDGSRTYYRDSVKGRFTISRDNAKITLYLQMDSLRSEDTATYYCARHGSGYFDYWGQGVMVTVSS[not shown - about 450 residues with a human IgG1 Fc and changes]
light: B1 light
notes: Built as m13
B8: 1H3-hIgG1-L6-hIL-2 (H16E) (other)
heavy: EVQLVESGGGLVQPGRSLKLSCAVSGFTFSDYAMAWVRQAPKKGLEWVATISYDGSRTYYRDSVKGRFTISRDNAKITLYLQMDSLRSEDTATYYCARHGSGYFDYWGQGVMVTVSS[not shown - about 450 residues with a human IgG1 Fc and changes]
light: B1 light
notes: Built as m13
B9: 1H3-hIgG1-L6-hIL-2 (L19A) (other)
heavy: EVQLVESGGGLVQPGRSLKLSCAVSGFTFSDYAMAWVRQAPKKGLEWVATISYDGSRTYYRDSVKGRFTISRDNAKITLYLQMDSLRSEDTATYYCARHGSGYFDYWGQGVMVTVSS[not shown - about 450 residues with a human IgG1 Fc and changes]
light: B1 light
notes: Built as m13
B10: 1H3-hIgG1-L6-hIL-2 (E15R) (other)
heavy: EVQLVESGGGLVQPGRSLKLSCAVSGFTFSDYAMAWVRQAPKKGLEWVATISYDGSRTYYRDSVKGRFTISRDNAKITLYLQMDSLRSEDTATYYCARHGSGYFDYWGQGVMVTVSS[not shown - about 450 residues with a human IgG1 Fc and changes]
light: B1 light
notes: Built as m13
B11: 1H3-hIgG1-L6-hIL-2 (I92R) (other)
heavy: EVQLVESGGGLVQPGRSLKLSCAVSGFTFSDYAMAWVRQAPKKGLEWVATISYDGSRTYYRDSVKGRFTISRDNAKITLYLQMDSLRSEDTATYYCARHGSGYFDYWGQGVMVTVSS[not shown - about 450 residues with a human IgG1 Fc and changes]
light: B1 light
notes: Built as m13
B12: 1H3-hIgG1-L6-hIL-2 (H16A) (other)
heavy: EVQLVESGGGLVQPGRSLKLSCAVSGFTFSDYAMAWVRQAPKKGLEWVATISYDGSRTYYRDSVKGRFTISRDNAKITLYLQMDSLRSEDTATYYCARHGSGYFDYWGQGVMVTVSS[not shown - about 450 residues with a human IgG1 Fc and changes]
light: B1 light
notes: Built as m13
B13: 1H3-hIgG1-L6-hIL-2 (D20S) (other)
heavy: EVQLVESGGGLVQPGRSLKLSCAVSGFTFSDYAMAWVRQAPKKGLEWVATISYDGSRTYYRDSVKGRFTISRDNAKITLYLQMDSLRSEDTATYYCARHGSGYFDYWGQGVMVTVSS[not shown - about 450 residues with a human IgG1 Fc and changes]
light: B1 light
notes: Built as m13
B14: 1H3-hIgG1-L6-hIL-2 (I92E) (other)
heavy: EVQLVESGGGLVQPGRSLKLSCAVSGFTFSDYAMAWVRQAPKKGLEWVATISYDGSRTYYRDSVKGRFTISRDNAKITLYLQMDSLRSEDTATYYCARHGSGYFDYWGQGVMVTVSS[not shown - about 450 residues with a human IgG1 Fc and changes]
light: B1 light
notes: Built as m13
B15: 1H3-hIgG1-L6-hIL-2 (E15K) (other)
heavy: EVQLVESGGGLVQPGRSLKLSCAVSGFTFSDYAMAWVRQAPKKGLEWVATISYDGSRTYYRDSVKGRFTISRDNAKITLYLQMDSLRSEDTATYYCARHGSGYFDYWGQGVMVTVSS[not shown - about 450 residues with a human IgG1 Fc and changes]
light: B1 light
notes: Built as m13
B16: 1H3-hIgG1-L6-hIL-2 (E15A) (other)
heavy: EVQLVESGGGLVQPGRSLKLSCAVSGFTFSDYAMAWVRQAPKKGLEWVATISYDGSRTYYRDSVKGRFTISRDNAKITLYLQMDSLRSEDTATYYCARHGSGYFDYWGQGVMVTVSS[not shown - about 450 residues with a human IgG1 Fc and changes]
light: B1 light
B17: 1H3-hIgG1-L6-hIL-2 (D20W) (other)
heavy: EVQLVESGGGLVQPGRSLKLSCAVSGFTFSDYAMAWVRQAPKKGLEWVATISYDGSRTYYRDSVKGRFTISRDNAKITLYLQMDSLRSEDTATYYCARHGSGYFDYWGQGVMVTVSS[not shown - about 450 residues with a human IgG1 Fc and changes]
light: B1 light
notes: Built as m13
B18: 1H3-hIgG1-L6-hIL-2 (R38A) (other)
heavy: EVQLVESGGGLVQPGRSLKLSCAVSGFTFSDYAMAWVRQAPKKGLEWVATISYDGSRTYYRDSVKGRFTISRDNAKITLYLQMDSLRSEDTATYYCARHGSGYFDYWGQGVMVTVSS[not shown - about 450 residues with a human IgG1 Fc and changes]
light: B1 light
notes: Built as m13
B19: 1H3-hIgG1-L6-hIL-2 (F42K/Y45R/Q126D) (other)
heavy: EVQLVESGGGLVQPGRSLKLSCAVSGFTFSDYAMAWVRQAPKKGLEWVATISYDGSRTYYRDSVKGRFTISRDNAKITLYLQMDSLRSEDTATYYCARHGSGYFDYWGQGVMVTVSS[not shown - human IgG1 constant region]SGGGGSAPTSSSTKKTQLQLEHLLLDLQMILNGINNYKNPKLTRMLTKKFRMPKKATELKHLQCLEEELKPLEEVLNLAQSKNFHLRPRDLISNINVIVLELKGSETTFMCEYADETATIVEFLNRWITFCDSIISTLT
light: B1 light
notes: Built as m13

Columns and labels:
[1] = target: T1, recombinant human CD25 extracellular …; test: BLI (Octet)
[2] = target: T2, recombinant human CD122 extracellular …; test: BLI (Octet)

Binder	Kd [1] [nM]	koff [1] [s⁻¹]	kon [1] [M⁻¹ s⁻¹]	binding result [2]	Kd [2] [nM]	koff [2] [s⁻¹]	kon [2] [M⁻¹ s⁻¹]	binding result [1]
B1	1.21	0.000175	144000	no binding (tested: 300 nM)				
B2	1.42	0.000214	151000	no binding (tested: 300 nM)				
B3	1.46	0.00022	150000		4.36	0.00435	997000	
B4	32.5	0.00405	124000	no binding (tested: 300 nM)				
B5				no binding (tested: 300 nM)				no binding (tested: 300 nM)
B6	7.94	0.000393	49500	no binding (tested: 300 nM)				
B7	4.79	0.00124	259000		10.3	0.00294	285000	
B8	1.4	0.00022	157000	no binding (tested: 300 nM)				
B9	1.76	0.000357	203000		10.3	0.00487	472000	
B10	3.41	0.000323	94800		3.69	0.000538	146000	
B11	2.54	0.000276	108000	no binding (tested: 300 nM)				
B12	1.68	0.000287	171000		1.78	0.00276	1.55e+06	
B13	0.624	0.000109	174000	no binding (tested: 300 nM)				
B14	2.41	0.000206	85400		1.62	0.00151	933000	
B15	1.39	0.000237	171000		3.56	0.000862	242000	
B16	2.04	0.000235	115000		8.89	0.00156	175000	
B17	1.01	0.00019	187000	no binding (tested: 300 nM)				
B18	5.55	0.00101	182000		13.8	0.00287	208000	
B19					9.16	0.00344	375000	no binding (tested: 300 nM)
